Measured values as given in the supplement of paper PMC12217912.
This is one part of the list. The full chains were built here from the parent and the listed change. Values near 0.05 are background.

B1: TEV protease; numbered along this chain (parent)
chain: MGESLFKGPRDYNPISSSICHLTNESDGHTTSLYGIGFGPFIITNKHLFRRNNGTLVVQSLHGVFKVKDTTTLQQHLVDGRDMIIIRMPKDFPPFPQKLKFREPQREERICLVTTNFQTKSMSSMVSDTSCTFPSGDGIFWKHWIQTKDGQCGSPLVSTRDGFIVGIHSASNFTNTNNYFTSVPKNFMELLTNQEAQQWVSGWRLNADSVLWGGHKVFMVKPEEPFQPVKEATQL

Variants of: B1
Assay: raw area under fraction-flipped curve 0-4 h after induction (AUC4h, not background-subtracted), DNA-recorder readout of cleavage of the substrate (dimensionless); higher = more cleavage of the substrate by the protease variant
Details: temperature: 34 °C; time window: 0-4 h after rhamnose induction
Protocol: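 In vivo DNA recorder in E. coli TOP10(DE3) ΔrhaA at 34 °C. Each TEVp single-site mutant (parent TEVp 0) is paired with a single-site variant of the 7-mer TEVs (canonical ENLYFQ|S). The substrate sits between flexible linkers in a Bxb1-sfGFP-TEVs-SsrA fusion, so cleavage stabilises Bxb1 and speeds flipping of a recombination array, read by NGS. The value is the raw area under the fraction-flipped curve over 0-4 h after rhamnose induction (AUC4h), with ≥20 reads per time point. It is not background-subtracted; inactive controls average about 0.047.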
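Note: Bxb1 expression induced with 0.2% (w/v) L-rhamnose at OD600 near 0.5, cultures sampled hourly, flipped fraction per protease–substrate barcode pair counted by paired-end Illumina sequencing.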

Row | Variant | area with substrate ENLCFQS | area with substrate ENLDFQS | area with substrate ENLEFQS | area with substrate ENLFFQS | area with substrate ENLGFQS | area with substrate ENLHFQS | area with substrate ENLIFQS | area with substrate ENLKFQS | area with substrate ENLLFQS | area with substrate ENLNFQS | area with substrate ENLPFQS | area with substrate ENLRFQS | area with substrate ENLSFQS | area with substrate ENLWFQS | area with substrate ENLMFQS | area with substrate ENLQFQS | area with substrate ENLTFQS | area with substrate ENLVFQS
1 | MGESLFKGPRDYNPISSSICHLTNESDGHTTSLYGIGFGPFIIWNKHLFRRNNGTLVVQSLHGVFKVKDTTTLQQHLVDGRDMIIIRMPKDFPPFPQKLKFREPQREERICLVTTNFQTKSMSSMVSDTSCTFPSGDGIFWKHWIQTKDGQCGSPLVSTRDGFIVGIHSASNFTNTNNYFTSVPKNFMELLTNQEAQQWVSGWRLNADSVLWGGHKVFMVKPEEPFQPVKEATQL [T44W] | 0.0511 | 0.0532 | 0.084 | 0.0555 | 0.054 | 0.0506 | 0.0374 | 0.0466 | 0.0498 | 0.0313 | 0.0436 | 0.0608 | 0.0289 | 0.0406 | – | – | – | –
2 | MGESLFKGPRDYNPISSSICHLTNESDGHTTSLYGIGFGPFIITNPHLFRRNNGTLVVQSLHGVFKVKDTTTLQQHLVDGRDMIIIRMPKDFPPFPQKLKFREPQREERICLVTTNFQTKSMSSMVSDTSCTFPSGDGIFWKHWIQTKDGQCGSPLVSTRDGFIVGIHSASNFTNTNNYFTSVPKNFMELLTNQEAQQWVSGWRLNADSVLWGGHKVFMVKPEEPFQPVKEATQL [K46P] | 0.0646 | 0.0595 | 0.0625 | 0.0582 | 0.0684 | 0.056 | – | 0.0621 | 0.0592 | 0.0592 | 0.0511 | 0.0648 | 0.0518 | 0.0494 | – | – | – | –
3 | MGESLFKGPRDYNPISSSICHLTNESDGHTTSLYGIGFGPFIITNKKLFRRNNGTLVVQSLHGVFKVKDTTTLQQHLVDGRDMIIIRMPKDFPPFPQKLKFREPQREERICLVTTNFQTKSMSSMVSDTSCTFPSGDGIFWKHWIQTKDGQCGSPLVSTRDGFIVGIHSASNFTNTNNYFTSVPKNFMELLTNQEAQQWVSGWRLNADSVLWGGHKVFMVKPEEPFQPVKEATQL [H47K] | 0.0566 | 0.0542 | 0.0645 | 0.0627 | – | – | 0.0598 | 0.0639 | 0.0557 | 0.0707 | 0.071 | 0.0512 | 0.0754 | 0.0566 | 0.0641 | 0.0625 | 0.0837 | –
4 | MGESLFKGPRDYNPISSSICHLTNESDGHTTSLYGIGFGPFIITNKLLFRRNNGTLVVQSLHGVFKVKDTTTLQQHLVDGRDMIIIRMPKDFPPFPQKLKFREPQREERICLVTTNFQTKSMSSMVSDTSCTFPSGDGIFWKHWIQTKDGQCGSPLVSTRDGFIVGIHSASNFTNTNNYFTSVPKNFMELLTNQEAQQWVSGWRLNADSVLWGGHKVFMVKPEEPFQPVKEATQL [H47L] | 0.0604 | 0.0666 | 0.0554 | 0.0661 | – | 0.062 | 0.117 | 0.0662 | 0.054 | 0.0532 | 0.0773 | 0.0566 | 0.0697 | 0.0639 | 0.0614 | – | 0.0371 | 0.0549
5 | MGESLFKGPRDYNPISSSICHLTNESDGHTTSLYGIGFGPFIITNKNLFRRNNGTLVVQSLHGVFKVKDTTTLQQHLVDGRDMIIIRMPKDFPPFPQKLKFREPQREERICLVTTNFQTKSMSSMVSDTSCTFPSGDGIFWKHWIQTKDGQCGSPLVSTRDGFIVGIHSASNFTNTNNYFTSVPKNFMELLTNQEAQQWVSGWRLNADSVLWGGHKVFMVKPEEPFQPVKEATQL [H47N] | 0.0642 | 0.0659 | 0.0563 | 0.0636 | – | 0.0618 | – | 0.0644 | 0.0478 | 0.0742 | 0.0421 | – | 0.0647 | 0.0595 | 0.0643 | 0.0593 | – | 0.0463
6 | MGESLFKGPRDYNPISSSICHLTNESDGHTTSLYGIGFGPFIITNKHLGRRNNGTLVVQSLHGVFKVKDTTTLQQHLVDGRDMIIIRMPKDFPPFPQKLKFREPQREERICLVTTNFQTKSMSSMVSDTSCTFPSGDGIFWKHWIQTKDGQCGSPLVSTRDGFIVGIHSASNFTNTNNYFTSVPKNFMELLTNQEAQQWVSGWRLNADSVLWGGHKVFMVKPEEPFQPVKEATQL [F49G] | 0.0467 | 0.0601 | 0.0533 | 0.0589 | 0.0529 | 0.0535 | 0.0443 | 0.0454 | 0.0598 | 0.0561 | 0.0597 | – | 0.0516 | – | – | 0.0719 | – | 0.0683
7 | MGESLFKGPRDYNPISSSICHLTNESDGHTTSLYGIGFGPFIITNKHLRRRNNGTLVVQSLHGVFKVKDTTTLQQHLVDGRDMIIIRMPKDFPPFPQKLKFREPQREERICLVTTNFQTKSMSSMVSDTSCTFPSGDGIFWKHWIQTKDGQCGSPLVSTRDGFIVGIHSASNFTNTNNYFTSVPKNFMELLTNQEAQQWVSGWRLNADSVLWGGHKVFMVKPEEPFQPVKEATQL [F49R] | 0.0551 | 0.056 | – | 0.0562 | – | – | 0.0501 | 0.0686 | – | – | 0.0619 | 0.0462 | 0.0554 | 0.0566 | – | 0.0683 | 0.0721 | –
8 | MGESLFKGPRDYNPISSSICHLTNESDGHTTSLYGIGFGPFIITNKHLFDRNNGTLVVQSLHGVFKVKDTTTLQQHLVDGRDMIIIRMPKDFPPFPQKLKFREPQREERICLVTTNFQTKSMSSMVSDTSCTFPSGDGIFWKHWIQTKDGQCGSPLVSTRDGFIVGIHSASNFTNTNNYFTSVPKNFMELLTNQEAQQWVSGWRLNADSVLWGGHKVFMVKPEEPFQPVKEATQL [R50D] | 0.0696 | 0.0633 | – | 0.0685 | – | 0.0672 | – | – | 0.0828 | 0.0529 | – | 0.0668 | 0.0665 | – | 0.0739 | 0.0625 | – | –
9 | MGESLFKGPRDYNPISSSICHLTNESDGHTTSLYGIGFGPFIITNKHLFRRNNGTLVVQSLHGVFKVTDTTTLQQHLVDGRDMIIIRMPKDFPPFPQKLKFREPQREERICLVTTNFQTKSMSSMVSDTSCTFPSGDGIFWKHWIQTKDGQCGSPLVSTRDGFIVGIHSASNFTNTNNYFTSVPKNFMELLTNQEAQQWVSGWRLNADSVLWGGHKVFMVKPEEPFQPVKEATQL [K68T] | 0.0833 | 0.0692 | – | – | – | 0.0761 | 0.103 | 0.0626 | – | – | 0.0774 | 0.07 | – | 0.061 | – | 0.0539 | – | –
10 | MGESLFKGPRDYNPISSSICHLTNESDGHTTSLYGIGFGPFIITNKHLFRRNNGTLVVQSLHGVFKVKDTLTLQQHLVDGRDMIIIRMPKDFPPFPQKLKFREPQREERICLVTTNFQTKSMSSMVSDTSCTFPSGDGIFWKHWIQTKDGQCGSPLVSTRDGFIVGIHSASNFTNTNNYFTSVPKNFMELLTNQEAQQWVSGWRLNADSVLWGGHKVFMVKPEEPFQPVKEATQL [T71L] | 0.0542 | 0.0614 | 0.0613 | 0.0806 | 0.0622 | 0.0761 | 0.0833 | 0.0886 | 0.0912 | 0.0707 | – | 0.0753 | – | 0.0672 | – | – | – | –
